Laboratory results: the supplement of paper PMC3334620
Whole data set: some 33,000 sequences, median “E-score (-0.5 to 0.5)” near -0.016, cut for the highest 2% near 0.31. This is one part of the list.

Target: Cst6 (UniProt P40535)
Test: PBM E-score (8-mer binding enrichment) (E-score (-0.5 to 0.5)); higher = stronger / more preferred TF binding; most listed sequences are background and not binding sites
Conditions: protein concentration: 200 nM; construct: GST-DNA-binding domain
How it was run: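 PURExpress in vitro transcription/translation supplied GST-tagged yeast transcription factors, either full-length or DNA-binding domain. Applied at about 100-200 nM to universal all-10-mer Agilent arrays double-stranded by primer extension, the bound protein was detected with fluorescent anti-GST. E-scores, modified Wilcoxon-Mann-Whitney statistics, were given by the Universal PBM Analysis Suite to ungapped eight-base words pooled with their reverse complements after masliner normalisation.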

Row | Sequence | PBM E-score
1 | GGGACAAC | -0.158
2 | CGGTTAGC | -0.122
3 | CAATCAGG | 0.0861
4 | TATGACAA | 0.25
5 | GACTGTCC | -0.324
6 | CAAGCTTA | -0.0191
7 | GCCGGCCC | -0.206
8 | GGGAAAAC | -0.0343
9 | CAGCTACA | -0.112
10 | GCCTTGCC | -0.0124
11 | GACTAAGC | -0.196
12 | AATCTGAG | -0.0919
13 | CTTTAAAA | 0.177
14 | GTGCCCAA | -0.0335
15 | GAGTATAC | 0.0608
16 | CAATACGA | 0.12
17 | ACGGTCTG | -0.189
18 | ATCTACAT | 0.137
19 | GGGTACGA | -0.141
20 | CCCACTTC | -0.126
21 | ATATCCAG | 0.0917
22 | ATAATCCA | 0.0556
23 | ATAGGGAG | -0.295
24 | CCGGTCGA | -0.317
25 | AAACATAA | 0.222

Row | Sequence | PBM E-score
26 | TAAACATA | 0.231
27 | GCACCGGC | -0.181
28 | TACAAGTA | 0.132
29 | ATCCTACG | -0.0692
30 | CGTGCCGA | 0.048
31 | AGGGCGTA | 0.0518
32 | CGGTAGGA | -0.15
33 | GACCCTGC | -0.322
34 | AGGGATAA | 0.0215
35 | GCCGCCGA | 0.0801
36 | ATTCACGA | 0.128
37 | ATTTGTTG | 0.232
38 | ACTAGTCT | -0.127
39 | AATGGAGA | -0.0892
40 | AGGCAAAG | -0.0371
41 | CCAAAGTA | 0.00372
42 | AGGCTGAG | -0.00996
43 | CAAACCAC | 0.0932
44 | ACATCAAT | 0.288
45 | GAAGTTAA | -0.0798
46 | CAACATCC | -0.231
47 | CGACAAGC | -0.178
48 | CGCTGTGC | -0.0643
49 | CCGGGAGC | -0.322
50 | AGGGACCT | -0.157

Row | Sequence | PBM E-score
51 | ATGATCTG | 0.231
52 | AAATACAT | 0.0549
53 | ACAACTGC | -0.0164
54 | ATGGAAAA | 0.135
55 | ACCTCCAA | -0.107
56 | ACGGGTCA | -0.0243
57 | CCTGATCG | 0.014
58 | TCCTGCCA | -0.265
59 | GAGCTAAA | -0.0615
60 | AAATTGAT | 0.154
61 | ATTTGTGA | 0.146
62 | GGACAAAC | -0.0601
63 | ATCAATGC | 0.104
64 | AACATCCA | 0.00499
65 | GAAAAGGA | -0.00557
66 | ATAGCCAG | -0.0314
67 | AATAACAC | 0.128
68 | GACCAAGC | -0.134
69 | AAACCCAG | -0.186
70 | ACATCAAC | 0.285
71 | CCACCAAG | -0.296
72 | TATAGGAA | 0.149
73 | GACTCACC | -0.183
74 | GCCACTCA | 0.00443
75 | CTTCGAAC | 0.0385

Row | Sequence | PBM E-score
76 | GTATCAGA | 0.00532
77 | GGACTGCA | -0.135
78 | CAGTTGTC | -0.0348
79 | GACTAGAA | 0.0542
80 | CTTGGGTA | -0.0581
81 | ATCGGCGG | 0.0115
82 | CGGACCCC | -0.236
83 | ACATCAGC | 0.116
84 | ATTTGGGA | -0.037
85 | ACGTGCCT | 0.0986
86 | ATCTTCGG | 0.148
87 | GTTACAAC | 0.15
88 | AAACTAAT | 0.241
89 | ATCCCATC | -0.191
90 | AGCCTGCG | -0.34
91 | GTCCCCAC | -0.401
92 | GAGTGGTA | -0.108
93 | ATGTCAAT | 0.26
94 | AATCGAAC | 0.00099
95 | TAACGACA | 0.0912
96 | GTAGCTCA | -0.0993
97 | ATCAAAGA | 0.0532
98 | GATTCGGC | 0.0498
99 | CCCTAGAG | -0.22
100 | GCCTATCC | -0.148

Row | Sequence | PBM E-score
101 | GGATAACA | -0.0581
102 | ACGTTCAA | 0.108
103 | AGCATGTC | -0.108
104 | ATATTAGG | 0.0359
105 | AGGATGGA | -0.164
106 | AGTACCCC | -0.27
107 | ATTGCAAT | 0.152
108 | ATCGACAA | 0.0192
109 | ATGGAGGA | -0.0428
110 | CTGAGCGA | -0.0721
111 | AGGGCGCA | -0.0682
112 | GAGGCCTA | -0.256
113 | CACGTATC | 0.0838
114 | CAGGGTCA | -0.298
115 | ACAATCCG | -0.0106
116 | GGTAAAAC | 0.0436
117 | GGAGAACA | -0.076
118 | CAAACCTG | 0.0584
119 | CTAGCAAG | -0.177
120 | CAGAGAGA | -0.165
121 | ATAACTGG | -0.161
122 | GAAGGAGA | 0.0368
123 | AAATCCAA | 0.125
124 | CAGTGCCG | 0.172
125 | GCAGATTA | 0.103

Row | Sequence | PBM E-score
126 | AATTATTC | 0.219
127 | CGGGGTAG | -0.199
128 | AGCTAAGG | -0.205
129 | ACCACCAC | 0.0158
130 | AGAAATTC | 0.0131
131 | AAATCGCA | 0.122
132 | CCTTGTGA | 0.159
133 | CGCTGCCC | -0.214
134 | CGGTTTCA | -0.013
135 | CAAGGTGG | -0.161
136 | CACAACGA | 0.116
137 | CAATAAAA | 0.165
138 | CCGGCTGC | -0.102
139 | AATCTCTG | -0.0578
140 | AGAGAGAA | 0.0541
141 | AAAAGGCC | -0.135
142 | CTGATGGA | -0.0729
143 | AGTCTGAA | -0.0104
144 | ACGCCTTG | 0.213
145 | AAAGCTTT | -0.0211
146 | AAAACAGT | 0.0923
147 | ACAGCCCG | -0.229
148 | ATAGTCTC | 0.0392
149 | AGTACGGA | 0.00821
150 | ACTCAGAC | -0.0358

Row | Sequence | PBM E-score
151 | AGGACAAT | -0.0178
152 | ATGCATTA | 0.255
153 | GATAGCAA | 0.181
154 | ACTGAGCC | 0.0371
155 | CCGTTATA | -0.00095
156 | ACACAGAG | -0.0396
157 | GAGTCAGA | 0.0485
158 | AACTCCGA | -0.117
159 | ACTAACAG | 0.13
160 | CCAATTAA | 0.03
161 | AAAAACGG | 0.0517
162 | AGTGTTAA | 0.188
163 | AGAGGAAA | 0.0703
164 | CTGTAGAA | 0.0216
165 | CTCGCGTA | 0.00147
166 | GATGTGGC | -0.0719
167 | GTGTACCA | -0.0412
168 | CCAGGACC | -0.313
169 | ATTCACTA | 0.104
170 | TATATCGA | 0.221
171 | GAGCGGAC | -0.313
172 | CCAACCCC | -0.0875
